Results taken from publication PMC4336329 (PLoS ONE, 2015).
Among all 310,000 compounds or so, about 14,000 (4.5%) showed an effect of 50% or more. The effect is printed as a negative number. Some of the results follow.

Target: human ether-à-go-go-related gene (hERG) potassium channel (human, UniProt Q12809)
Test: primary screen, population patch clamp on CHO cells stably expressing hERG
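Note: peak tail current of the secondary pulse compared with the same well before compound.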

Chain of human ether-à-go-go-related gene (hERG) potassium channel (Q12809 whole entry, looked up): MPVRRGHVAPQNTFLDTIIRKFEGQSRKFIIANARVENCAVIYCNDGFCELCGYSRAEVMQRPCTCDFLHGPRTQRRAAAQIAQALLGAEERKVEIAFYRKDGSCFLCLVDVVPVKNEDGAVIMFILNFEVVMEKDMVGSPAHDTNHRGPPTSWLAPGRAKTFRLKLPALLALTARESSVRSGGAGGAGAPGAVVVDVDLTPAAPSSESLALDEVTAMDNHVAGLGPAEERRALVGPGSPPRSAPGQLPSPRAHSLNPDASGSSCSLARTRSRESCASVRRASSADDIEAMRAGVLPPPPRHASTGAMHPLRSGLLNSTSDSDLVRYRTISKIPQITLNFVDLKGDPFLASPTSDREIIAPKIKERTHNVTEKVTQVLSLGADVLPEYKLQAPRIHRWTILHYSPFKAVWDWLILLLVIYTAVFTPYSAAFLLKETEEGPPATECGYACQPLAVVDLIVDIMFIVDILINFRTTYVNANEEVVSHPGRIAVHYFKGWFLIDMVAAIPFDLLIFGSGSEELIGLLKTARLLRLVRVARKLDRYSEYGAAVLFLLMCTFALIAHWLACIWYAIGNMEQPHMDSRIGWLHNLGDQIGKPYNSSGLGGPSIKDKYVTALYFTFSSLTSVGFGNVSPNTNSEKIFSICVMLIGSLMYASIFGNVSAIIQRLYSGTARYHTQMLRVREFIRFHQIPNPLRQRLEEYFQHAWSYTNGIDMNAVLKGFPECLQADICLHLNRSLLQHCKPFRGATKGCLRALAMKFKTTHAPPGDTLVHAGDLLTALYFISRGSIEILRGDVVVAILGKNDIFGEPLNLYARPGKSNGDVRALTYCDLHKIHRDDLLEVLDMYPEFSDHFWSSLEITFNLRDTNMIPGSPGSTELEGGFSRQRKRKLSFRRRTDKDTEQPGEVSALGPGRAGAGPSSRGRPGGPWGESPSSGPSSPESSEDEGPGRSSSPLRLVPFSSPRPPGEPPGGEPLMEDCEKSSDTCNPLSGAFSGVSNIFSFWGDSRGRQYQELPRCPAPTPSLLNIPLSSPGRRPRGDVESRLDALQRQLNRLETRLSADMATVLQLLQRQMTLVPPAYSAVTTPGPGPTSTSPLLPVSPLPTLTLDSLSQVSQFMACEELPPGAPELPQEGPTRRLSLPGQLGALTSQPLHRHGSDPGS

Row | Compound | hERG current change (%, negative = inhibition) at 10uM [%]
1 | Cc1onc(-c2c(F)cccc2Cl)c1C(=O)Nc1ccccc1N1CCOCC1 | -10.6
2 | O=C(COC(=O)CN1C(=O)c2ccccc2C1=O)Nc1ncc(Cl)cc1Cl | -14.7
3 | CCOC(=O)c1c(C)[nH]c(C(=O)OCC(=O)N2CC(C)OC(C)C2)c1C (stereo not drawn) | 12.2
4 | Cc1ccc(S(=O)(=O)N2[C@@H](c3ccccc3)C(C(=O)O)=CC[C@H]2c2ccc(Cl)c(Cl)c2)cc1 | 23.8
5 | COc1ccc(-c2nnc(SCC(=O)Nc3ncc(C(F)(F)F)cc3Cl)n2CC(C)C)cc1 | -41.7
6 | Cc1ccc(CCNC(=O)C2CCCN(S(=O)(=O)c3cccc4nsnc34)C2)cc1 (stereo not drawn) | 4.66
7 | S=C(c1ccccc1)N1CCCc2ccccc21 | -4.95
8 | CC1CN(C(=O)Cn2cc(S(=O)(=O)CC(=O)N3CCOCC3)c3ccccc32)CC(C)O1 (stereo not drawn) | 17.3
9 | Cc1ccc(C2=NN(CC(=O)NCc3ccccn3)C(=O)CC2)cc1 | -11.6
10 | Cc1ccc(CNC(=O)CN(C(=O)C2(C)CC(=O)N=C3C=CC=CN32)c2cccc(C)c2C)cc1 (stereo not drawn) | 8.06
11 | Cc1ccc(C)c(CSc2nnc(C)c(=O)[nH]2)c1 | 13.6
12 | CCOC(=O)c1c(C)oc(C)c(C(=O)OCC)c1=O | 22.7
13 | COc1ccc(CS(=O)(=O)c2nc(C)cc(C)c2S(C)(=O)=O)cc1 | 0.759
14 | COc1cc(NS(=O)(=O)c2ccc(N/C=C(\C#N)c3nc4ccccc4o3)cc2)nc(OC)n1 | -13.6
15 | CC(=O)Nc1ccc(Nc2nnc(-c3ccc(C)c(S(N)(=O)=O)c3)c3ccccc23)cc1 | 12.7
16 | CC1Cc2ccccc2N1C(=O)Cn1c(=O)oc2cc(S(=O)(=O)N3CCCCC3)ccc21 (stereo not drawn) | -4.06
17 | CC1CCN(S(=O)(=O)c2ccc(C(=O)N3CCCC3C(=O)O)cc2)CC1 (stereo not drawn) | 11
18 | O=C1CC(NS(=O)(=O)c2cc(F)ccc2F)CN1c1cccc(F)c1 (stereo not drawn) | 7.04
19 | O=C(NNS(=O)(=O)c1ccccc1[N+](=O)[O-])c1ccccc1[N+](=O)[O-] | 33.7
20 | CN1CCN(S(=O)(=O)c2cccc(C(=O)Nc3cc(C(F)(F)F)ccc3N3CCCCC3)c2)CC1 | 6.04
21 | Cc1cc(OC(=O)c2cccs2)ccc1C(C)C | 12.1
22 | CN(C)c1ccc(/C=C2/SC(=O)N(CCN=C3NS(=O)(=O)c4ccccc43)C2=O)cc1 | 6.14
23 | CCOc1ccc(C(=O)Nc2ccccc2NC(C)=O)cc1OCC | 17.6
24 | COc1ccc(/C=C2\SC(=S)N(CCC(=O)N(CCO)Cc3ccccc3)C2=O)cc1OC | -0.362
25 | COc1ccc(CCC(=O)N2CCN(S(=O)(=O)c3ccc4ccccc4c3)CC2)cc1 | 1.63
26 | CCOC(=O)C1(Cc2ccccc2C)CCCN(C(=O)c2ccccn2)C1 (stereo not drawn) | 10.8

Row | Compound | hERG current change (%, negative = inhibition) at 10uM [%]
27 | C=CCNc1sc(C(=O)c2ccccc2)c(N)c1-c1nc2ccccc2s1 | 12
28 | COc1ccc(C2C3=C(CC(C)(C)CC3=O)Nc3c2c(=O)[nH]c(=O)n3Cc2ccccc2)cc1 (stereo not drawn) | 8.57
29 | O=c1cc(N2CCc3ccccc32)[nH]c(=O)n1-c1ccc(Cl)cc1 | 10.6
30 | CC(C)CCC(CC(C)O)c1n[nH]c(=S)n1-c1ccccc1 (stereo not drawn) | 19
31 | Cc1cc(C)c(S(=O)(=O)N2CCN(c3ccc([N+](=O)[O-])c(NCc4ccco4)c3)CC2)c(C)c1 | 16.5
32 | CC(C)NC(=O)c1ccc(-c2cccc(C(F)(F)F)c2)o1 | 7.19
33 | Cc1ccc(NC(=O)c2cccc(OCc3c(C)noc3C)c2)cc1S(=O)(=O)Nc1ccccc1Cl | -3.21
34 | COc1ccc(CC(=O)NCc2n[nH]c(=S)n2-c2ccccc2)cc1 | 15.1
35 | CCC1SC2=NC(C)=C(C(=O)OC)C(c3ccc(C(=O)OC)cc3)N2C1=O (stereo not drawn) | -5.68
36 | Cc1ccc(C)c(C(=O)COC(=O)CCCC(=O)Nc2cc(C(F)(F)F)ccc2Cl)c1 | 28.4
37 | CC1CCN(C(=O)c2ccc(S(=O)(=O)NCc3ccco3)cc2)CC1 | 16.3
38 | C=CCN(c1ccccc1)S(=O)(=O)c1cccc(C(=O)NCc2ccncc2)c1 | -27.1
39 | Cc1ccc(S(=O)(=O)c2cc3c(=O)n4ccccc4nc3n(Cc3ccco3)c2=N)cc1 | -11.2
40 | Cc1ccc2c(ccc[n+]2CC(=O)c2ccccc2)c1.[Br-] | -13.1
41 | CCN1CCN(Cc2nnnn2C(C)(C)C)CC1 | -1.73
42 | CCCOP(=O)(OCCC)C(Nc1cccc(C(F)(F)F)c1)c1ccc(C)cc1 (stereo not drawn) | 24.4
43 | COc1cc(/C=N/NC(=O)CNC(=O)/C=C/c2ccco2)cc(OC)c1OC | 17.4
44 | OCC1(CCOc2ccccc2)CCN(Cc2ccccc2C(F)(F)F)CC1 | -34.2
45 | N#CC(c1ccc(Cl)cc1)(c1ncc(C(F)(F)F)cc1Cl)N1CCOCC1 (stereo not drawn) | -8.25
46 | CN(c1ccc(OCc2nnc(-c3ccccc3)o2)cc1)S(=O)(=O)c1ccccc1 | -13.2
47 | Cc1ccc(CNC(=O)Cn2nnc(C(=O)Nc3cc(C)ccc3C)c2N)cc1 | 16.1
48 | COCCNC(=O)CS(=O)(=O)Cc1nc(-c2ccc(C)cc2)oc1C | 5.53
49 | COc1cc(OC)cc(C(=O)Nn2cc(C(=O)Nc3ccc(F)cc3F)c3ccccc3c2=O)c1 | 1.46
50 | COC(=O)c1c(NC(=O)C2CC2)sc(C(=O)Nc2ccccc2)c1C | 7.58
51 | Cc1cc(Nc2ccccc2)nn1C(=O)c1ccc(Br)cc1 | 12.2
